In patent publication US20250313820A1, “PEPTIDES WITH MULTIVALENT EFFECTS” (In2Cure AB, priority 2021, published 2025):
Part of at least one peptide drawing is inferred or uncertain, most often the ends. Where a SMILES comes first, the peptide text is derived from it. Bridges are numbered along the chain shown (N, C = ends). [ ]: non-standard residue; d: D form. S5 = C=CCCC[C@](C)(N)C(=O)O

Assays:
P. aeruginosa O1 [1] = assay: Viable count assay (VCA), P. aeruginosa; assay type: cell-based; details: peptide concentration and salt not given
E. coli ATCC 25922 [2] = assay: Radial diffusion assay (RDA), E. coli; assay type: cell-based; details: zone of clearance; peptide concentration and salt not given
S. aureus ATCC 29213 [3] = assay: Viable count assay (VCA), S. aureus; assay type: cell-based; details: peptide concentration and salt not given
P. aeruginosa O1 [4] = assay: Radial diffusion assay (RDA), P. aeruginosa; assay type: cell-based; details: zone of clearance; peptide concentration and salt not given
S. aureus ATCC 29213 [5] = assay: Radial diffusion assay (RDA), S. aureus; assay type: cell-based; details: zone of clearance; peptide concentration and salt not given
E. coli ATCC 25922 [6] = assay: Viable count assay (VCA), E. coli; assay type: cell-based; details: peptide concentration and salt not given
[7] = Dynamic light scattering (DLS), hydrodynamic radii; assay type: physicochemical; details: 1 mM peptide, 10 mM Tris pH 7.4 or 10 mM NaOAc pH 5
[8] = system: E. coli, P. aeruginosa O1, and S. aureus; assay: Radial diffusion assay (RDA), statements on all strains; assay type: cell-based; details: Example 1

Row | Structure (SMILES) | Anti-bacterial activity (reuction in Log), P. aeruginosa, VCA (P. aeruginosa O1 [1]) | Anti-bacterial activity, E. coli, RDA (E. coli ATCC 25922 [2]) | Anti-bacterial activity (reuction in Log), S. aureus, VCA (S. aureus ATCC 29213 [3]) | Anti-bacterial activity, P. aeruginosa, RDA (P. aeruginosa O1 [4]) | Anti-bacterial activity, S. aureus, RDA (S. aureus ATCC 29213 [5]) | Anti-bacterial activity (reuction in Log), E. coli, VCA (E. coli ATCC 25922 [6]) | size of hydrodynamic radii of particles in solution [7] | antimicrobial activity by RDA, w/o or with NaCl, in words [8]
1 | CC[C@H](C)[C@H](NC(=O)[C@H](Cc1c[nH]c2ccccc12)NC(=O)[C@H](CCCCN)NC(=O)[C@H](CCCCN)NC(=O)[C@H](CC(C)C)NC(=O)[C@H](CCCNC(=N)N)NC(=O)[C@H](Cc1ccccc1)NC(=O)[C@@H](NC(=O)[C@H](CCCNC(=N)N)NC(=O)[C@H](CCCNC(=N)N)NC(=O)[C@@H](N)CCCNC(=N)N)C(C)C)C(=O)N[C@@]1(C)CCCC=CCCC[C@@](C)(C(=O)N[C@@H](CCC(N)=O)C(=O)N[C@@H](Cc2ccccc2)C(=O)NCC(=O)N[C@@H](CCC(=O)O)C(=O)O)NC(=O)[C@H]([C@@H](C)CC)NC(=O)[C@H](C(C)C)NC(=O)[C@H](CCCCN)NC1=O [sRRRVF18, RRRVFRLKKWIX1KVIX2QFGE] (H-RRRVFRLKKWI[S5]KVI[S5]QFGE-OH; staple 12-16) | 6 log10 | 2.4 mm | >6 log10 | 2.2 mm | 1.2 mm | 1 log10 |  | 
2 | CC[C@H](C)[C@H](NC(=O)[C@H](Cc1c[nH]c2ccccc12)NC(=O)[C@H](CCCCN)NC(=O)[C@H](CCCCN)NC(=O)[C@H](CC(C)C)NC(=O)[C@H](CCCNC(=N)N)NC(=O)[C@H](Cc1ccccc1)NC(=O)[C@@H](NC(=O)[C@H](CCCCN)NC(=O)[C@@H](N)CCCCN)C(C)C)C(=O)N[C@@]1(C)CCCC=CCCC[C@@](C)(C(=O)N[C@@H](CCC(N)=O)C(=O)N[C@@H](Cc2ccccc2)C(=O)NCC(=O)N[C@@H](CCC(=O)O)C(=O)O)NC(=O)[C@H]([C@@H](C)CC)NC(=O)[C@H](C(C)C)NC(=O)[C@H](CCCCN)NC1=O [sKKVF18, KKVFRLKKWIX1KVIX2QFGE] (H-KKVFRLKKWI[S5]KVI[S5]QFGE-OH; staple 11-15) | 0 log10 |  | >6 log10 |  |  | 0 log10 |  | 
3 | CC[C@H](C)[C@H](NC(=O)[C@H](Cc1c[nH]c2ccccc12)NC(=O)[C@H](CCCCN)NC(=O)[C@H](CCCCN)NC(=O)[C@H](CC(C)C)NC(=O)[C@H](CCCNC(=N)N)NC(=O)[C@H](Cc1ccccc1)NC(=O)[C@@H](NC(=O)[C@@H](N)CCCCN)C(C)C)C(=O)N[C@@]1(C)CCCC=CCCC[C@@](C)(C(=O)N[C@@H](CCC(N)=O)C(=O)N[C@@H](Cc2ccccc2)C(=O)NCC(=O)N[C@@H](CCC(=O)O)C(=O)O)NC(=O)[C@H]([C@@H](C)CC)NC(=O)[C@H](C(C)C)NC(=O)[C@H](CCCCN)NC1=O [sKVF18, KVFRLKKWIXKVIXQFGE] (H-KVFRLKKWI[S5]KVI[S5]QFGE-OH; staple 10-14) | 0 log10 | 1.0 mm | >6 log10 | 0.4 mm | 0 mm | 0 log10 |  | 
4 | CC[C@H](C)[C@H](NC(=O)[C@H](Cc1c[nH]c2ccccc12)NC(=O)[C@H](CCCCN)NC(=O)[C@H](CCCCN)NC(=O)[C@H](CC(C)C)NC(=O)[C@H](CCCNC(=N)N)NC(=O)[C@H](Cc1ccccc1)NC(=O)[C@@H](NC(=O)[C@H](CCCCN)NC(=O)[C@H](CCCCN)NC(=O)[C@@H](N)CCCCN)C(C)C)C(=O)N[C@@]1(C)CCCC=CCCC[C@@](C)(C(=O)N[C@@H](CCC(N)=O)C(=O)N[C@@H](Cc2ccccc2)C(=O)NCC(=O)N[C@@H](CCC(=O)O)C(=O)O)NC(=O)[C@H]([C@@H](C)CC)NC(=O)[C@H](C(C)C)NC(=O)[C@H](CCCCN)NC1=O [sKKKVF18, KKKVFRLKKWIX1KVIX2QFGE] (H-KKKVFRLKKWI[S5]KVI[S5]QFGE-OH; staple 12-16) | 2 log10 | 2.5 mm | >6 log10 | 2.1 mm | 1.3 mm | 1 log10 |  | 
5 | CC[C@H](C)[C@H](NC(=O)[C@H](Cc1c[nH]c2ccccc12)NC(=O)[C@H](CCCCN)NC(=O)[C@H](CCCCN)NC(=O)[C@H](CC(C)C)NC(=O)[C@H](CCCNC(=N)N)NC(=O)[C@H](Cc1ccccc1)NC(=O)[C@@H](NC(=O)[C@H](CCCCN)NC(=O)[C@H](CCCCN)NC(=O)[C@H](CCCCN)NC(=O)[C@@H](N)CCCCN)C(C)C)C(=O)N[C@@]1(C)CCCC=CCCC[C@@](C)(C(=O)N[C@@H](CCC(N)=O)C(=O)N[C@@H](Cc2ccccc2)C(=O)NCC(=O)N[C@@H](CCC(=O)O)C(=O)O)NC(=O)[C@H]([C@@H](C)CC)NC(=O)[C@H](C(C)C)NC(=O)[C@H](CCCCN)NC1=O [sKKKKVF18, KKKKVFRLKKWIX1KVIX2QFGE] (H-KKKKVFRLKKWI[S5]KVI[S5]QFGE-OH; staple 13-17) | 6 log10 | 3.2 mm | >6 log10 | 2.9 mm | 1.7 mm | 1 log10 |  | 
6 | CC[C@H](C)[C@H](NC(=O)[C@H](Cc1c[nH]c2ccccc12)NC(=O)[C@H](CCCCN)NC(=O)[C@H](CCCCN)NC(=O)[C@H](CC(C)C)NC(=O)[C@H](CCCNC(=N)N)NC(=O)[C@H](Cc1ccccc1)NC(=O)[C@@H](NC(=O)[C@@H](N)Cc1c[nH]cn1)C(C)C)C(=O)N[C@@H](CCC(N)=O)C(=O)N[C@@H](CCCCN)C(=O)N[C@H](C(=O)N[C@H](C(=O)N[C@@H](CC(=O)O)C(=O)N[C@@H](CCC(N)=O)C(=O)N[C@@H](Cc1ccccc1)C(=O)NCC(=O)N[C@@H](CCC(=O)O)C(=O)O)[C@@H](C)CC)C(C)C [HVF18, reference compound] (H-HVFRLKKWIQKVIDQFGE-OH) | 0 log10 | 0 mm | 0 log10 | 0.7 mm | 0 mm | 0 log10 | larger at pH 7.4 than at pH 5 | better bacterial killing in experiments w/o salt
7 | CC[C@H](C)[C@H](NC(=O)[C@H](Cc1c[nH]c2ccccc12)NC(=O)[C@H](CCCCN)NC(=O)[C@H](CCCCN)NC(=O)[C@H](CC(C)C)NC(=O)[C@H](CCCNC(=N)N)NC(=O)[C@H](Cc1ccccc1)NC(=O)[C@@H](NC(=O)[C@@H](N)CCCNC(=N)N)C(C)C)C(=O)N[C@@]1(C)CCCC=CCCC[C@@](C)(C(=O)N[C@@H](CCC(N)=O)C(=O)N[C@@H](Cc2ccccc2)C(=O)NCC(=O)N[C@@H](CCC(=O)O)C(=O)O)NC(=O)[C@H]([C@@H](C)CC)NC(=O)[C@H](C(C)C)NC(=O)[C@H](CCCCN)NC1=O [sRVF18, RVFRLKKWIXKVIXQFGE] (H-RVFRLKKWI[S5]KVI[S5]QFGE-OH; staple 10-14) | 1 log10 | 2.7 mm | >6 log10 | 1.0 mm | 0.7 mm | 0 log10 |  | 
8 | CC[C@H](C)[C@H](NC(=O)[C@H](Cc1c[nH]c2ccccc12)NC(=O)[C@H](CCCCN)NC(=O)[C@H](CCCCN)NC(=O)[C@H](CC(C)C)NC(=O)[C@H](CCCNC(=N)N)NC(=O)[C@H](Cc1ccccc1)NC(=O)[C@@H](NC(=O)[C@H](CCCNC(=N)N)NC(=O)[C@@H](N)CCCNC(=N)N)C(C)C)C(=O)N[C@@]1(C)CCCC=CCCC[C@@](C)(C(=O)N[C@@H](CCC(N)=O)C(=O)N[C@@H](Cc2ccccc2)C(=O)NCC(=O)N[C@@H](CCC(=O)O)C(=O)O)NC(=O)[C@H]([C@@H](C)CC)NC(=O)[C@H](C(C)C)NC(=O)[C@H](CCCCN)NC1=O [sRRVF18, RRVFRLKKWIX1KVIX2QFGE] (H-RRVFRLKKWI[S5]KVI[S5]QFGE-OH; staple 11-15) | 1 log10 | 2.5 mm | >6 log10 | 1.0 mm | 0.6 mm | 0 log10 |  | 
9 | CC[C@H](C)[C@H](NC(=O)[C@H](Cc1c[nH]c2ccccc12)NC(=O)[C@H](CCCCN)NC(=O)[C@H](CCCCN)NC(=O)[C@H](CC(C)C)NC(=O)[C@H](CCCNC(=N)N)NC(=O)[C@H](Cc1ccccc1)NC(=O)[C@@H](NC(=O)[C@H](CCCNC(=N)N)NC(=O)[C@H](CCCNC(=N)N)NC(=O)[C@H](CCCNC(=N)N)NC(=O)[C@@H](N)CCCNC(=N)N)C(C)C)C(=O)N[C@@]1(C)CCCC=CCCC[C@@](C)(C(=O)N[C@@H](CCC(N)=O)C(=O)N[C@@H](Cc2ccccc2)C(=O)NCC(=O)N[C@@H](CCC(=O)O)C(=O)O)NC(=O)[C@H]([C@@H](C)CC)NC(=O)[C@H](C(C)C)NC(=O)[C@H](CCCCN)NC1=O [sRRRRVF18, RRRRVFRLKKWIX1KVIX2QFGE] (H-RRRRVFRLKKWI[S5]KVI[S5]QFGE-OH; staple 13-17) | 6 log10 | 2.0 mm | >6 log10 | 1.8 mm | 1.1 mm | 1 log10 |  | 
